Assay results taken from PMC6919601, “Identification of Plasmodium dipeptidyl aminopeptidase allosteric inhibitors by high throughput screening” (PLoS ONE, 2019).
Hit rate of the full screen: of about 110,000 compounds, about 230 (0.21%) showed an effect of 50% or more. Some of the results follow.

These compounds were tested against DPAP1 (Plasmodium falciparum, UniProt Q8IIJ9) (assay: primary screen, percent inhibition; read by cleavage of a fluorogenic dipeptide substrate; higher = more effect of the substance).
Set-up: species or system P. falciparum D10 trophozoite lysates; single well
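Note: 30 min substrate incubation versus DMSO and 10 µM JCP410 controls.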

Sequence of DPAP1 (Q8IIJ9 whole entry, looked up): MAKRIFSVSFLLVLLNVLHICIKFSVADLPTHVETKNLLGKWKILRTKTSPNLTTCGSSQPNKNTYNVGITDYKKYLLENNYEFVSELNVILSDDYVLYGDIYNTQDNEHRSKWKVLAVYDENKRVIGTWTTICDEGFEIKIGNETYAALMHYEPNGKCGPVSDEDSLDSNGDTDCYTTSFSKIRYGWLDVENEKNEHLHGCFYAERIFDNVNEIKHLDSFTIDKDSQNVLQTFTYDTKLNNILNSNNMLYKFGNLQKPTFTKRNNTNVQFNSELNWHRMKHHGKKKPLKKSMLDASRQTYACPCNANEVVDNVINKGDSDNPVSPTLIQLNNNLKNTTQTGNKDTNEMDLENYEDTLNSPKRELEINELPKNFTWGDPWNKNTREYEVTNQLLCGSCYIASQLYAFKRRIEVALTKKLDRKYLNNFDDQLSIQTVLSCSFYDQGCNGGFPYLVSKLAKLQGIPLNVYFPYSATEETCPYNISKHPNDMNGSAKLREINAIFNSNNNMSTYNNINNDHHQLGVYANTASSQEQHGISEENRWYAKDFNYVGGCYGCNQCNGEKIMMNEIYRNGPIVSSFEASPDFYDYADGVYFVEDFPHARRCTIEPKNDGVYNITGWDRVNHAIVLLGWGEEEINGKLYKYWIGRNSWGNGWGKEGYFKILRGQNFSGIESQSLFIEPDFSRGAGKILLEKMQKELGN

| SMILES | % Inhibition @ 10 uM [%] |
| --- | --- |
| COc1ccccc1CNC(=O)CSc1nc2nncc-2c(O)n1-c1cccc(C(F)(F)F)c1 | 1.91 |
| COc1cccc(-c2nc(CS(=O)(=O)CC(=O)N(C)CCC#N)c(C)o2)c1 | -0.138 |
| Cc1cccnc1NC(=O)C(NS(=O)(=O)c1cccc2nsnc12)C(C)C (stereo not shown) | 1.05 |
| CCCOc1ccc(C(=O)Nc2ccc(CN3CCOCC3)cc2)cc1 | -4.12 |
| CCCCNC(=O)Nc1ccc(OC)cc1C | -0.487 |
| CCCNC(=O)c1cnn(-c2ccccc2)c1-n1cccc1 | 1.8 |
| COc1cccc(C2NC(=O)NC(C)=C2C(=O)OCC2CCCCC2)c1 (stereo not shown) | 11.8 |
| CC1CCc2nn(CC(=O)NCc3ccccn3)cc2C1 (stereo not shown) | 3.4 |
| CC1CN(c2nc3ccccc3nc2SCC(=O)N2CCC3(CC2)OCCO3)CC(C)O1 (stereo not shown) | 1.72 |
| COc1ccc(C(=O)N2CCN(Cc3cccc(C)c3)CC2)cc1OC | 0.964 |
| O=S(=O)(c1ccc(Cl)cc1)C1(S(=O)(=O)c2ccc(Cl)cc2)CCCC1 | -8.51 |
| Cc1nc2cccnc2n1-c1ccc(CC(=O)NCc2ccccc2Cl)cc1 | 2.32 |
| COc1cc(Br)ccc1C1/C(=C(\O)OC2CCCCC2)C(C)=Nc2nnnn21 (stereo not shown) | 6.66 |
| COC(=O)c1cc(S(=O)(=O)NCc2ccccc2Cl)c[nH]1 | -2.57 |
| c1ccc2c3c([nH]c2c1)CN(Cc1ccc2c(c1)OCO2)CC3 | -1.93 |
| O=C(Nc1ccc2c(c1)OCO2)c1nn2c(C(F)(F)F)cc(-c3ccccc3)nc2c1Cl | -3.37 |
| Nc1nonc1-c1noc(-c2cccc(COc3ccc(Cl)cc3Cl)c2)n1 | 4.88 |
| O=[N+]([O-])c1ccc(S(=O)(=O)N2CCCc3ccccc32)cc1 | 0.78 |
| COCCNC(=O)c1cc(-c2ccccc2O)no1 | -6.05 |
| Cc1cc(CN2C(=O)c3ccccc3C2=O)cc(C)n1 | -0.902 |
| O=C(c1ccc2c(c1)OCO2)N1CCN(c2cccc(Cl)c2)CC1 | -1.85 |
| O=C(C1CCN(S(=O)(=O)N2CCC3(CC2)OCCO3)CC1)N1CCOCC1 | -2.99 |
| Cc1cc(-c2ccc(Cl)cc2)n2nc(N)nc2n1 | 3.36 |
| Cc1ccc(Cn2c(C(=O)O)c(CNCc3ccco3)c3ccc(C)cc32)cc1 | 4.67 |
| CC(C)C[C@H](NC(=O)c1ccc(-c2cccnc2)cc1)C(=O)NCC#N | -0.778 |

| SMILES | % Inhibition @ 10 uM [%] |
| --- | --- |
| Cc1cc2ccccc2c(=O)n1CC(=O)N1CCN(c2ccccn2)CC1 | -1.51 |
| CNCCc1c[nH]c2ccc(OCc3ccccc3)cc12 | 3.47 |
| Cc1csc(NC(=O)Cn2cnc3c2c(=O)n(C)c(=O)n3C)n1 | 0.408 |
| CC(=O)n1cc(/C=C(\C)[N+](=O)[O-])c2ccccc21 | 1.7 |
| CC/N=C1\SC(CC(=O)Nc2ccccc2F)C(=O)N1CC (stereo not shown) | -0.641 |
| Cc1cc(C)c2c(cnn2CC(=O)N2CCc3ccccc3C2)c1 | -4.71 |
| Cc1ccc(N2C(=O)CC(N3CCN(C4CC(=O)N(c5ccc(C)cc5)C4=O)CC3)C2=O)cc1 (stereo not shown) | -7 |
| c1ccc2c(c1)CCC(NCCc1c[nH]cn1)C2 (stereo not shown) | 3.48 |
| CCOCC(O)CSc1nc(C)cc(C)n1 (stereo not shown) | 1.04 |
| CCOc1ccccc1Cn1cccc1C=O | 2.9 |
| O=C(Nc1ccc(Cl)cc1C(=O)NCC1CCCO1)c1ccco1 (stereo not shown) | 0.52 |
| Cc1ccc(S(=O)(=O)N(CC(=O)NCc2ccccc2)c2ccc(Cl)cc2)cc1 | -0.796 |
| CC1=C(C(=O)Nc2cccc(C)n2)C(c2ccccc2)C2=C(O)CC(C)(C)CC2=N1 (stereo not shown) | -2.56 |
| COc1cc(OC)cc(C(=O)N2CCN(C(c3ccccc3)c3ccccc3)CC2)c1 | 6.3 |
| CCCc1[nH]nc2c1C(c1cc(OC)c(OC)cc1OC)C(C#N)=C(N)O2 (stereo not shown) | -0.99 |
| CC(=O)/N=C1\SC2CS(=O)(=O)CC2N1Cc1ccccc1 (stereo not shown) | 3.81 |
| COc1ccc(S(=O)(=O)n2nc(-c3ccccc3OC)cc2N)cc1OC | -5.76 |
| COc1ccc(C(=O)NCC(=O)NCC(=O)O)cc1 | -2.98 |
| COc1cc(/C=C2/C(=O)ON=C2C)ccc1OCc1ccc(C)cc1 | 4.54 |
| COc1ccccc1N1CCN(S(=O)(=O)c2ccccc2C(F)(F)F)CC1 | -4.82 |
| O=C1c2cccc3c(Cl)ccc(c23)C(=O)N1Cc1ccncc1 | -0.63 |
| CC(C)CN1C(=O)C(NC(=O)CCc2ccccc2)(C(F)(F)F)C2=C1CC(C)(C)CC2=O (stereo not shown) | -1.52 |
| CCn1c2ccc(OC)cc2c2nnc(S)nc21 | 79.3 |
| COc1cccc(C2c3cc(OC)c(OC)c(OC)c3CCN2C(=O)C(F)(F)F)c1 (stereo not shown) | -7.32 |
| Cc1ccccc1OCCc1c(C)nc(S)nc1O | 2.57 |

| SMILES | % Inhibition @ 10 uM [%] |
| --- | --- |
| O=C(Nc1ccc(Br)cc1)c1cccc(S(=O)(=O)Nc2ccc(Br)cc2)c1 | 4.82 |
| CCOC(=O)/C=C(\C)N1N=C(c2ccccc2)CC1/C=C/c1ccccc1 (stereo not shown) | 3.98 |
| CN1C(=O)c2ccccc2C(C(=O)NCCC2=CCCCC2)C1c1c[nH]c2ccccc12 (stereo not shown) | 1.81 |
| CCOc1ccc(-n2c(C)nc3cc(C(=O)NCc4ccc5c(c4)OCO5)ccc32)cc1 | 5.85 |
| COc1ccc(CNCCc2ccccc2)cc1OC | 0.909 |
| CCCN1C/C(=C/c2ccc3c(c2)OCO3)C(=O)/C(=C/c2ccc3c(c2)OCO3)C1 | 22.7 |
| CC1(C)CC(CCN)(c2ccc(F)cc2)CCO1 (stereo not shown) | -2.55 |
| CC1=C/C(=N\OC(=O)c2cccc(Cl)c2)C=CC1=O | 6.51 |
| CC(C)CCNC(=O)COc1ccccc1 | -5.34 |
| Cc1ccc(S(=O)(=O)Nc2cccc(C(=O)N3CCOCC3)c2)cc1 | -1.17 |
| Cn1c(=O)c2c(nc3n(CCO)c(-c4ccc(Br)cc4)cn23)n(C)c1=O | -3.63 |
| Cc1ccc(CNC(=O)C2CCN(c3nnc(C)c4c(C)n(-c5ccccc5)nc34)CC2)o1 | 11 |
| CCOc1ccccc1CNS(=O)(=O)c1c[nH]cn1 | -8.06 |
| Cc1cc(C)nc(Nc2nc(N)c3ccccc3n2)n1 | -21.8 |
| CC(=O)N/C(=C\c1ccccc1)C(=O)Nc1cc(C)cc(C)c1 | -9.87 |
| O=C(Nc1c(C(=O)N2CCCCC2)cnn1-c1ccccc1)c1ccc(Br)cc1 | -7.62 |
| O=C1N=C(N2CCN(C3=NC(=O)/C(=C\c4cccc(O)c4)S3)CC2)S/C1=C\c1cccc(O)c1 | 6 |
| CC(C)(C)C1CCC(NCCCN2CCOCC2)CC1 (stereo not shown) | -3.74 |
| COc1ccc(-c2[nH]nc(C)c2-c2ccccc2)c(O)c1 | 13.3 |
| Cn1c2ccccc2c2nc3ccc([N+](=O)[O-])cc3cc21 | 1.24 |
| CCCc1c(C)c2ccc(OCc3ccc(F)cc3)cc2oc1=O | -0.436 |
| Cc1occc1-c1nnc(-c2ccc([N+](=O)[O-])cc2)o1 | -1.99 |
| COc1ccc(-c2onc(C)c2C)cc1S(=O)(=O)NCc1ccccn1 | -4.32 |
| CC(C)CNc1nc2c(c(=O)n(Cc3ccc(Cl)cc3Cl)c(=O)n2C)n1C | -1.47 |
| Cc1ccc(Cc2nnc(C(=O)NCCC3=CCCCC3)o2)cc1 | 2 |

| SMILES | % Inhibition @ 10 uM [%] |
| --- | --- |
| COc1ccc(/C=C2\CCc3ccc(OC)cc3C2=O)cc1 | -0.736 |
| COc1ccc(Br)cc1CNC(=O)c1ccc2[nH]c(C)c(C)c2c1 | -2.28 |
| CC(=O)Nc1nc(C)c(-c2csc(Nc3ccc(S(N)(=O)=O)cc3)n2)s1 | -4.89 |
| Cc1nc(N2CCc3ccccc3C2)nc(O)c1CCC(C)C | 5.3 |
| CC(=O)N1N=C(c2ccc(N(C)C)cc2)CC1c1ccccc1 (stereo not shown) | 1.34 |
| Cc1ccc(C(=O)c2cn(CC(N)=O)c3nc(C)ccc3c2=O)cc1 | -0.436 |
| Cc1ccc(/C=C2\S/C(=N/c3ccc(C(=O)O)cc3)N(C)C2=O)cc1 | -5.82 |
| COc1ccc(S(=O)(=O)NCc2ccc(C(=O)N3CCN(c4ccccn4)CC3)cc2)cc1 | 1.9 |
| O=C(O)CSC12CC3CC(C1)CC(C(=O)O)(C3)C2 | -4.24 |
| CSc1ncc(F)c(=O)n1Cc1ccccc1 | -1.18 |
| C=CCNC(=O)c1ccccc1NC(=O)CN(c1ccc(Cl)c(Cl)c1)S(C)(=O)=O | -0.795 |
| N#Cc1ccc2c(c1)nc1c3cccc4cccc(c(=O)n21)c43 | -5.78 |
| Cc1onc(-c2ccccc2Cl)c1C(=O)NCc1nc(-c2ccccc2)no1 | -4.82 |
| O=C(NC1CCN(Cc2ccccc2)CC1)C1CCC(Cn2c(=O)[nH]c3ccsc3c2=O)CC1 (stereo not shown) | 1.23 |
| CCCNC(c1ccccc1)c1ccncc1 (stereo not shown) | -0.192 |
| CCN(Cc1ccccc1)C(=O)c1ccc(CS(=O)c2ccccc2C)o1 (stereo not shown) | 0.124 |
| Cc1ccc(C(=O)Nc2ccc(NC(=O)c3ccccc3)cc2)cc1 | 1.96 |
| O=C1OC(c2ccc(F)cc2)=N/C1=C\C(Cl)=C\c1ccccc1 | -0.972 |
| CC(=O)CC(=O)Nc1c(C)cccc1C | 0.912 |
| N=C1/C(=C/c2cccs2)C(=O)N=C2SC=C(c3ccccc3)N12 | -1.93 |
| COc1ccc(-c2cc(C(F)(F)F)n3ncc(C#N)c3n2)cc1 | -4.28 |
| Cc1ccc(C)c(NC(=O)OCCNC(=O)C2C(C=C(Cl)Cl)C2(C)C)c1 (stereo not shown) | 4.07 |
| CCS(=O)(=O)N1CCN(Cc2cc(Br)ccc2O)CC1 | -5.28 |
| O=C(O)CC/N=C/c1c(O)oc2ccccc2c1=O | 3.38 |
| COc1ccc(OC)c2c(C)cc(N3CCN(S(=O)(=O)c4ccc(C)cc4)CC3)nc12 | -7.15 |
